What is called % Inhibition is the change of the read-out against control, counted positive when it falls.

Hit rate of the full screen: of about 150,000 compounds, about 540 (0.36%) showed an effect of 50% or more. The list shows a part of the results.

The subject of the experiment is Plasmodium falciparum. Description: Primary screen in NF54 nanoGlo assay, in single point, at 2uM, 72h; a lower Z score goes with more inhibition. Type of experiment: functional, Erythrocyte. Particulars: timepoint 72 hour.
As to `CCOC(=O)c1noc2ncnc(N3CC[C@H](c4ccccc4)C3)c12`, the “% Inhibition” value was -3% and the Z score was found to be 0.57.
The like results for `Cc1cccc(C)c1NC(=O)NCc1cc2n(n1)CCN(C1CCCCC1)C2` were, in that order, 2% and -0.22.
`O=S(=O)(N[C@H]1CCOC[C@@H]1O)c1cccc2cccc(Cl)c12`: the “% Inhibition” value is on record as 1% and the Z score was -0.16.
The matching figures for `CC(C)CCNC(=O)CCCOc1ccccc1`: -17% and 2.48.
The matching figures for `FC(F)Cn1ccc(NCc2[nH]ncc2Br)n1`: -13% and 1.76.
As for `CN=C(NCCC1=CCOCC1)NC1CC(C)N(c2ccccc2)C1` (stereo not given), the “% Inhibition” value was 0% and the Z score came to 0.03.
The matching figures for `Fc1cccc2nc(N3CCC[C@H]3c3ncccn3)oc12`: -12% and 1.94.
The like results for `CCN(CC)C[C@H](O)COc1ccc(Cl)cc1Cl` were, in that order, 9% and -1.14.
The matching figures for `COCCN(Cc1c(C)nn(C)c1Cl)CC1CCN(Cc2ccccc2F)CC1`: -10% and 1.32.
Consider `CC(C)[C@@]1(C(=O)Nc2ncccc2O)CNC(=O)C1`, for which the “% Inhibition” value worked out at 6% and the Z score is -1.2.
The matching figures for `Cc1ccc(-n2cccn2)c(-c2c(C#N)c(N)nc3c2CC(N)CC3)c1` (stereo not given): -3% and 0.42.
The matching figures for `CNC(=O)c1ccc(N(C)[C@H](CO)CC(C)C)nn1`: -42% and 4.89.
The like results for `C=CCCCC(NCCc1c(C)noc1C)C1(C)CCCO1` (stereo not given) were, in that order, -5% and 0.73.
`CC(C)(CN[C@H]1CCCS(=O)(=O)C1)c1ccccc1Cl`: the “% Inhibition” value was 7% and the Z score is -0.75.
The like results for `CCN1CCN(C(=O)c2nn(-c3cc(C)ccc3F)c3c2CCC3)[C@@H](C)C1` were, in that order, -13% and 2.17.
For `CCCCn1ccnc1-c1cccc(NC(=O)Cc2cc(C)[nH]n2)c1`, the “% Inhibition” value is recorded as 0% and the Z score is 0.
The matching figures for `CCCC1(C2CCN(C(=O)c3ccoc3)CC2)NC(=O)N(CCC2CCCN2C)C1=O` (stereo not given): -4% and 0.8.
The like results for `Cc1noc2nc(CCC(=O)NCc3ccc(F)cc3)nc(N3CC(C)CC(C)C3)c12` (stereo not given) were, in that order, 17% and -2.6.
The matching figures for `Cn1c(=O)[nH]c2ncc(-c3cccc(C(=O)NC4CCOCC4)c3)cc21`: -7% and 1.4.
Regarding `Cc1cc(C)n(CCC(=O)N2CCCCc3cccnc32)n1`, the “% Inhibition” value was -20% and the Z score was found to be 3.43.
As for `CN(C)c1cnc(C(=O)NC(C)(C)C(C)(F)F)cn1`, the “% Inhibition” value turned out to be 0% and the Z score worked out at 0.08.
Regarding `COc1cc(C(=O)CN(C)C(C)=O)cc2c1OCO2`, the “% Inhibition” value was -49% and the Z score was 5.72.
On to `CNc1nc(C)c(C(=O)N2CCC3(CC2)c2ccccc2C[C@@H]3O)s1`, for which the “% Inhibition” value was -2% and the Z score stood at 0.44.
The matching figures for `COC1CCCN(C(=O)CC2(c3ccccc3)CC(=O)N(CCc3ccccn3)C2=O)C1` (stereo not given): -2% and 0.3.
The like results for `COc1ccc(NS(=O)(=O)c2ccc3onc(C(=O)N4CCCC4)c3c2)cc1` were, in that order, -6% and 0.99.
The matching figures for `C[C@H](NC(=O)NCCOc1ccc(F)c(F)c1)c1ccncc1`: -9% and 1.9.
For `COc1ccc(-n2c(-c3cnccn3)n[nH]c2=O)c(C)c1`, the “% Inhibition” value is reported as -14% and the Z score stood at 1.77.
The matching figures for `Cc1cc(C(=O)CN2C(=O)NC(C)(c3ccccc3Cl)C2=O)c(C)n1CC1CCCO1` (stereo not given): -6% and 0.98.
The matching figures for `Cc1nc(CN(Cc2cccnc2)Cc2ccco2)cs1`: 2% and -0.28.
On to `COc1ccc(-c2cnn3c2N(C)CC3)c(F)c1`, for which the “% Inhibition” value was -1% and the Z score was found to be 0.2.
In the case of `O=C(NC1CCCCC1OC1CCCC1)c1csnn1` (stereo not given), the “% Inhibition” value was -7% and the Z score is recorded as 1.01.
The matching figures for `COc1ccnc(N2C[C@@H]3OCC(=O)N(CC4CC4)[C@@H]3C2)n1`: -6% and 0.87.
The like results for `Cc1ccc(C(=O)N2CC(C)NC(C)C2)n1C` (stereo not given) were, in that order, -20% and 2.36.
In the case of `O=C(OCC1CCOCC1)c1cnn2ncccc12`, the “% Inhibition” value stood at 14% and the Z score is reported as -1.78.
The like results for `Cc1cccc(NC(=O)COc2ccc3c(c2)OCO3)n1` were, in that order, -3% and 0.51.
Consider `CCOc1ccc(NC(=O)c2ccccc2N2C(=O)[C@@H]3Cc4c([nH]c5ccccc45)C(c4cccc(OC)c4)N3C2=O)cc1` (stereo not given in full), for which the “% Inhibition” value was -1% and the Z score came out at 0.05.
Consider `CCOc1ccc(C(=O)NCC2(CO)CC2)o1`, for which the “% Inhibition” value is given as -2% and the Z score worked out at 0.2.
The like results for `CCCCN1C(=O)c2ccccc2C(C(=O)NCCC2CCCN2C)C1c1cccc(Cl)c1` (stereo not given) were, in that order, -24% and 2.08.
The matching figures for `Cc1cc(C)c(NCC(=O)NCCc2cccs2)c(C)c1`: -12% and 2.31.
Regarding `Cc1cccc(OCC(=O)NC(C)C)c1`, the “% Inhibition” value was determined as 3% and the Z score is -0.32.
The matching figures for `CCOc1ccc(S(=O)(=O)N[C@H]2CCCN(c3ncccn3)C2)cc1`: 2% and -0.34.
The like results for `O=C(Nc1ccc2c(c1)OCCO2)c1cn(Cc2cccc(F)c2)nc1OCc1cccc(F)c1` were, in that order, 11% and -1.26.
For `COCCN(C)C[C@H]1C[C@H](CO)CN(c2nc3cc(C)ccc3o2)C1`, the “% Inhibition” value is reported as -19% and the Z score turned out to be 1.66.
The like results for `C[C@H]1CCCN(C(=O)Cc2cccc3ccccc23)C1` were, in that order, -10% and 1.27.
The like results for `COCCCCNC(=O)CNc1cc(Cl)ccc1OC` were, in that order, -13% and 1.8.
The matching figures for `Cc1ccc(Cl)cc1S(=O)(=O)N[C@@H](C)c1nccs1`: -2% and 0.43.
For the molecule `O=C(Nc1ccc(C(=O)N2CCCCC2)cc1)c1cc(Cl)ccc1Cl`, the “% Inhibition” value is listed as -9% and the Z score came out at 1.33.
For the molecule `O=C(NCCn1ccnc1C1CC1)Nc1cccs1`, the “% Inhibition” value stood at 11% and the Z score was -1.44.
`Cc1ccc(N(C(=O)c2cc(C3CC3)on2)C2CCCCC2)nc1`: the “% Inhibition” value is on record as -7% and the Z score is 1.38.
The matching figures for `O=C(Cc1coc2cc(Cl)ccc12)N[C@@H](CC1CC1)C(=O)O`: -16% and 1.99.
The matching figures for `COc1ccc(N2CCN(C(=O)N[C@H]3CN(C)C[C@@H]3OC)CC2)cc1`: 2% and -0.3.
The matching figures for `CC(NC(=O)NC1COCC1O)C(C)c1ccccc1C(F)(F)F` (stereo not given): -6% and 0.77.
On to `Cc1ccc(-n2ncnc2CCCN2CCCC2=O)c(C)c1`, for which the “% Inhibition” value is recorded as -16% and the Z score was found to be 2.04.
The like results for `CCC(c1cccs1)N1C(=O)[C@H]2CN(S(=O)(=O)c3cccc(Cl)c3)C[C@H]2C1=O` (stereo not given in full) were, in that order, 4% and -0.81.
The matching figures for `COC(=O)c1cc(OCC(=O)Nc2cc(F)ccc2F)c2cc(F)ccc2n1`: -11% and 1.91.
